Reference: PubChem BioAssay AID504832 (National Center for Advancing Translational Sciences (NCATS), 2011)
In all, about 310,000 compounds went through this assay and about 18,000 (5.8%) were called active. Inconclusive means that the source gave no clear call. Such entries were picked first, then a sample of the others. Calls come from the whole dose curve; as a rule, active = well fitted inhibition curve with a large enough effect; inconclusive = small, poorly fitted or top-dose-only effect, or another doubt; inactive = no such curve, though single readings can be large or run the other way. No potency is given beside an inconclusive call; the fits are too rough.

Assay: Primary qHTS for delayed death inhibitors of the malarial parasite plastid, 48 hour incubation
Conditions: P. falciparum luciferase growth in erythrocytes; series mostly up to 28.7 µM
Outline: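 In quantitative HTS format, infected erythrocytes bearing luciferase-reporter parasites were treated for a single generation at 37 C. Luminescence after adding detection reagent served as the growth measure.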
Potency is the fitted concentration of half-maximal effect; tags give direction and shape of the fitted curve.

SMILES | Potency
O=C1N(CN2CCC3(CC2)OCCO3)c2ccccc2C12OCCCO2 | inconclusive [inhibitor, single point]
COc1cccc(C(=O)C2CCCN(C(=O)c3ccc(C#CC(C)(C)O)cc3)C2)c1 (stereo not drawn) | inconclusive [inhibitor, partial curve, poor fit]
COc1ccc(OCCCN(C)Cc2ccccc2)cc1 | inconclusive [inhibitor, full curve, poor fit]
CC(C)(C)c1cc(NC(=O)Nc2ccccc2)no1 | inactive
CS(=O)(=O)Nc1ccc(C2=NN(C(=O)C3CCCCC3)C(c3cccs3)C2)cc1 (stereo not drawn) | inconclusive [inhibitor, partial curve, poor fit]
Cc1cc(SCC(=O)Nc2cccc(S(=O)(=O)NC3=NCCCCC3)c2)nc2ccccc12 | inconclusive [inhibitor, partial curve]
CC(C)CCN(C(=O)C1CSC2(C)CCC(=O)N12)c1c(N)n(Cc2ccccc2)c(=O)[nH]c1=O (stereo not drawn) | inconclusive [inhibitor, single point]
COc1ccc2[nH]cc(CCNC(=O)c3ccc4ccccc4n3)c2c1 | inactive
O=C(Nc1nnc(SCc2ccc(F)cc2)s1)c1ccc2c(c1)C(=O)N(c1ccccc1Cl)C2=O | inactive
CC(C)(C)NCC(O)COc1c(F)cc(Br)cc1F (stereo not drawn) | active: 11.7 µM
Cc1cc(C)c(OCCCCN2CCC(C)CC2)c(Br)c1 | inconclusive [inhibitor, single point]
Cc1ccccc1CN(C)CC(=O)NC(C)CCc1ccccc1 (stereo not drawn) | inactive
COCCNC(=S)N/N=C(\C)c1ccccc1O | active: 2.94 µM
CCN(CC)S(=O)(=O)c1cccc(-c2nn(-c3ccccc3)cc2/C=C(\C#N)C(=O)NCc2ccco2)c1 | inconclusive [inhibitor, partial curve, poor fit]
O=C(NCc1ccc(F)cc1)c1cccc2c1C(=O)c1ccc(Cl)cc1S2(=O)=O | inactive
CCOC(=O)c1nn(-c2ccc(Cl)cc2Cl)c(=N)c(C#N)c1C | inconclusive [inhibitor, partial curve]
CCOc1ccc(NC(=O)CSc2nnc(C3CC3)n2C)cc1S(=O)(=O)N1CCCCC1 | inconclusive [inhibitor, partial curve, poor fit]
CCC(C(=O)NC1CCCC1)N(Cc1ccc2c(c1)OCO2)C(=O)c1snc(C(N)=O)c1N (stereo not drawn) | inconclusive [inhibitor, partial curve, poor fit]
COc1ccc(N(C(=O)c2snc(C(N)=O)c2N)C(C(=O)NCc2ccccc2)c2ccc(F)cc2)c(OC)c1 (stereo not drawn) | active: 10.4 µM
C[C@@H]1O[C@@H](O[C@H]2C[C@@H](O)[C@]3(CO)[C@H]4[C@H](O)C[C@]5(C)[C@@H](C6=CC(=O)OC6)CC[C@]5(O)[C@@H]4CC[C@]3(O)C2)[C@H](O)[C@H](O)[C@H]1O | inconclusive [inhibitor, full curve, poor fit]
COC(=O)c1sccc1NC(=O)c1cc(-c2ccc(C)cc2)nc2ccccc12 | inconclusive [inhibitor, partial curve, poor fit]

SMILES | Potency
CS(=O)(=O)N1CCN(C(=O)Cc2ccc([N+](=O)[O-])cc2)CC1 | inconclusive [inhibitor, single point]
COc1ccc(N(C2=NCCCS2)S(=O)(=O)c2ccc(C(C)(C)C)cc2)cc1 | inconclusive [inhibitor, single point]
CCN(CC(=O)Nc1cc(Cl)ccc1C)C(=O)COc1cccc2c1OC(C)(C)C2 | inconclusive [inhibitor, single point]
O=C(c1cccc(-n2cccc2)c1)N1CCN(S(=O)(=O)c2ccccc2)CC1 | inconclusive [inhibitor, single point]
COC(=O)CSc1nc(N)c(C#N)c(-c2ccco2)c1C#N | inactive
O=C(O)c1ccc(S(=O)(=O)/N=C2\C=C(Nc3ccccc3F)C(=O)c3ccccc32)cc1 | active: 2.62 µM
CCC(=O)N1c2ccccc2NC2=C(C(=O)CC(c3ccco3)C2)C1c1ccco1 (stereo not drawn) | inactive
COc1cc(OC)cc(C(=O)NC2CCN(C(=O)N3c4ccccc4Sc4ccccc43)CC2)c1 | active: 13.1 µM
COc1ccc(C(C#N)C2(C)OCCO2)cc1OC (stereo not drawn) | inactive
O=C(NC1CCCc2ccccc21)C1CCN(c2c3c(nc4ncnn24)CCC3)CC1 (stereo not drawn) | inconclusive [inhibitor, partial curve]
N#CC(C#N)=C1C=CC=CN1/C(=C\c1ccco1)C(=O)c1ccc(-c2ccccc2)cc1 | inconclusive [inhibitor, single point]
O=S(=O)(NCCc1csc(-c2cccnc2)n1)c1ccc(F)cc1 | inconclusive [inhibitor, partial curve, poor fit]
Cn1c(=O)[nH]c(=O)c2c1nc(N1CCCC1)n2CCCSc1nc2ccccc2o1 | inconclusive [inhibitor, partial curve, poor fit]
O=C(c1ccco1)N1CCN(C(c2ccc(F)cc2)c2nnnn2Cc2cccs2)CC1 (stereo not drawn) | inconclusive [inhibitor, single point]
CN(C(=O)CSc1nc(C2CC2)nc2ccccc12)c1nc(-c2ccccc2)cs1 | inconclusive [inhibitor, partial curve, poor fit]
COc1cc(C(=O)N2CCN(S(=O)(=O)c3cccs3)CC2)cc(OC)c1C | inconclusive [inhibitor, single point]
COc1ccc(C(=O)N(Cc2ccccc2)Cc2cc3cc4c(cc3[nH]c2=O)OCCO4)cc1 | inconclusive [inhibitor, single point]
CCOc1cc(/C=N\Nc2nc(-c3ccc(C)cc3)c(NC(C)=O)s2)ccc1O | active: 8.28 µM
COc1ccc(C2CC(c3ccc(C)cc3)Nc3ncnn32)cc1 (stereo not drawn) | inconclusive [inhibitor, single point]
O=C(/C=C/c1ccco1)Nc1ccc(Cl)c(S(=O)(=O)N2CCOCC2)c1 | inconclusive [inhibitor, single point]
N#Cc1nc(Cc2cccc3ccccc23)oc1NCCCn1ccnc1 | inconclusive [inhibitor, partial curve]

SMILES | Potency
CC(C)(C)OC(=O)N1CCC[C@H]1c1nnc(SC/C=C/c2ccccc2)o1 | active: 10.4 µM
O=C(Nc1ccc(Cl)c(Cl)c1)Nc1nnc(CC2=CCCCC2)s1 | inconclusive [inhibitor, partial curve]
Cc1ccc(C(=O)NNC2=Nc3cc([N+](=O)[O-])ccc3OC2)cc1 | inconclusive [inhibitor, single point]
Cc1ccc(O)c(NC(=O)c2cc(-c3ccco3)on2)c1 | inconclusive [inhibitor, single point]
O=C(Cn1c(=O)c2c3c(sc2n(Cc2ccccc2)c1=O)CCCC3)NCCO | inconclusive [inhibitor, partial curve, poor fit]
COC(=O)c1ccc(CSc2ccc3nnc(-c4ccc(F)cc4)n3n2)o1 | inconclusive [inhibitor, single point]
CC1CC(C)CN(CCCNS(=O)(=O)c2cc(Br)cc3c2N(C(=O)C2CC2)CC3)C1 (stereo not drawn) | inconclusive [inhibitor, single point]
CC1(C)CC(=O)C(C(=S)Nc2ccccc2)=C(NC2CC(C)(C)NC(C)(C)C2)C1 | inconclusive [inhibitor, partial curve]
CC(=O)c1c(C)[nH]c2ccccc2c1=O | inactive
CC(C)(C)c1ccc(-c2nc3c(C#N)c(-c4ccc5c(c4)OCO5)ccn3n2)cc1 | active: 8.28 µM
COc1ccc(NC(C)=[N+](C)CCNS(=O)(=O)c2ccc(Cl)cc2)cc1Cl | inconclusive [inhibitor, single point]
CCCS(=O)(=O)N1CCN=C1SCc1cccnc1 | inconclusive [inhibitor, full curve, poor fit]
COC(=O)Cc1cc(=O)[nH]c(/N=C(\N)Nc2cccc(C)c2)n1 | inactive
CCOc1ccccc1NC(=O)CSc1nnc(Cc2ccc(OC)cc2)c(=O)n1N | inconclusive [inhibitor, single point]
CCOC(=O)c1ccc2ncc(C(=O)OCC)c(NCCCN3CCOCC3)c2c1 | inconclusive [inhibitor, single point]
Cc1ccc(C(=O)N(CC(=O)Nc2sc(C)c(C)c2C(N)=O)C2CCCC2)cc1 | inconclusive [inhibitor, single point]
Cc1cc(Cl)ccc1NC(=S)NCc1ccccc1Cl | inconclusive [inhibitor, single point]
Cc1ccc(C(=O)NCC(=O)OCC(=O)NCCNC(=O)COC(=O)CNC(=O)c2ccc(C)cc2)cc1 | inconclusive [inhibitor, single point]
C=CCNCCOc1ccc(C)cc1[N+](=O)[O-] | inactive
COc1cccc(CC(=O)NN2C(=O)NC3(CCCCC3)C2=O)c1 | inconclusive [inhibitor, single point]
Cc1ccc(S(=O)(=O)Nc2cccc(C(=O)NCC3(N4CCCCC4)CCCCC3)c2)cc1F | inconclusive [inhibitor, single point]
